Reference: PubChem BioAssay (NCATS)
Inconclusive results, whose numbers are uncertain, are shown with a selection of clear calls. For part of these data: Potencies beside an inconclusive call are fits to weak or partial responses and may not hold up. For part of these data: A note “side channel” means that the fit belongs to a control or component signal, not to the main read-out. The source made the active and inactive calls. Unless noted, calls follow the shape of the dose curve; as a rule, active = well fitted curve in the direction sought with a large enough effect; inconclusive = small, poorly fitted or top-dose-only effect, or another doubt; inactive = no such curve, though single readings can be large; an effect the other way counts as inactive or inconclusive.

Experiments:
[1] = target: Estrogen receptor (Homo sapiens) (UniProt P03372); experiment: qHTS assay for small molecule antagonists of estrogen receptor alpha signaling (AID 588513; active = well fitted curve in the direction sought with a large enough effect in the signal ratio, with a control signal flat, not every such curve was filed as active; inconclusive = small, poorly fitted or top-dose-only effect, or effect the other way, or a change in a side signal; inactive = no such curve, though single readings can be large or run the other way; the % refers to the signal ratio; also: potency is read from the fitted curve at half-maximal effect); conditions: ER-alpha-UAS-bla HEK293, beta-lactamase ratio, antagonist mode; activity, negative = inhibition: at 76.9 µM (top of the series)
Summary of the method: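 Beta-lactamase reporter, antagonist mode, HEK 293 GripTite cells; 0.5nM E2 stimulus, 18 h, 37 C; CCF4 dye 2 h RT; fluorescence. IC50 and efficacy from Hill fits, normalized to E2 and DMSO.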

[2] = target: Androgen receptor (Homo sapiens) (UniProt P10275); experiment: qHTS assay for small molecule antagonists of androgen receptor signaling (AID 588516; active = well fitted curve in the direction sought with a large enough effect in the signal ratio, with a control signal flat, not every such curve was filed as active; inconclusive = small, poorly fitted or top-dose-only effect, or effect the other way, or a change in a side signal; inactive = no such curve, though single readings can be large or run the other way; the % refers to the signal ratio; also: % is scaled to controls: 0 for no effect and ±100 for the full control effect); conditions: AR-UAS-bla HEK293, beta-lactamase ratio, antagonist mode, 16 h; at 76.8 µM (top of the series)
Summary of the method: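 Antagonist mode: inhibition of R1881-stimulated (10 nM final) bla reporter in GeneBLAzer AR HEK 293 cells, 16 h at 37C, compounds titrated. IC50 and efficacy from Hill-equation fits of 405/460–530 nm FRET ratios.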

[3] = target: Bile acid receptor (Homo sapiens) (UniProt Q96RI1); experiment: qHTS assay for small molecule antagonists of farnesoid X receptor signaling (AID 588526; calls by dose curve; also: % is scaled to controls: 0 for no effect and ±100 for the full control effect); conditions: HEK293T FXR-UAS-bla, beta-lactamase ratio, antagonist mode; activity change, negative = inhibition: at 76.7 µM (top of the series)
Summary of the method: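 Antagonist mode: titrated compounds tested against chenodeoxycholic acid stimulation (normalized to 50 uM CDCA and DMSO) in GeneBLAzer HEK293T cells for 16 h. Beta-lactamase read by CCF4 fluorescence; IC50 from Hill fits.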

[4] = target: Peroxisome proliferator-activated receptor delta (Homo sapiens) (UniProt Q03181); experiment: qHTS assay for small molecule agonists of peroxisome proliferator-activated receptor delta signaling (AID 588534; calls by dose curve; also: potency is read from the fitted curve at half-maximal effect); conditions: HEK293T PPARdelta-UAS-bla, beta-lactamase ratio, 18 h; activation: at 76.7 µM (top of the series)
Summary of the method: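 Reporter cells were plated and held 5 hrs at 37 C before compounds were added. After 18 hrs at 37 C, CCF4 dye was loaded for 2 hrs at RT and fluorescence measured.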

[5] = target: Peroxisome proliferator-activated receptor delta (Homo sapiens) (UniProt Q03181); experiment: qHTS assay for small molecule antagonists of peroxisome proliferator-activated receptor delta signaling (AID 588535; active = well fitted inhibition curve with a large enough effect in the signal ratio, with a control signal flat, not every such curve was filed as active; inconclusive = small, poorly fitted or top-dose-only effect, or effect the other way, or a change in a side signal; inactive = no such curve, though single readings can be large or run the other way; the % refers to the signal ratio); conditions: HEK293T PPARd-UAS-bla, beta-lactamase FRET ratio, 18 h; activity change, negative = inhibition: at 76.7 µM (top of the series)
Summary of the method: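 Cells were seeded at 4000 per well in assay medium containing 2% charcoal/dextran FBS and held 5 hrs at 37 C. Compounds were then added for 18 hrs. CCF4 substrate was applied for 2 hrs at room temperature before fluorescence reading.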

[6] = target: Peroxisome proliferator-activated receptor gamma (Homo sapiens) (UniProt P37231); experiment: qHTS assay for small molecule agonists of peroxisome proliferator-activated receptor gamma signaling (AID 588536; active = well fitted curve in the direction sought with a large enough effect in the signal ratio, with a control signal flat, not every such curve was filed as active; inconclusive = small, poorly fitted or top-dose-only effect, or effect the other way, or a change in a side signal; inactive = no such curve, though single readings can be large or run the other way; the % refers to the signal ratio;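 also: 0% = DMSO basal wells and 100% = rosiglitazone at 2 µM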); conditions: HEK293 PPARg-UAS-bla, beta-lactamase ratio, 16 h; activation: at 76.7 µM (top of the series), percent of rosiglitazone response, DMSO as zero
Summary of the method: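 Test agents, titrated, stimulated HEK293 UAS-bla cells overnight (16 h, 37 C). Substrate CCF4 was then added for two hours at room temperature before fluorescence reading.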

[7] = target: Peroxisome proliferator-activated receptor gamma (Homo sapiens) (UniProt P37231); experiment: qHTS assay for small molecule antagonists of peroxisome proliferator-activated receptor gamma signaling (AID 588537; active = well fitted inhibition curve with a large enough effect in the signal ratio, with a control signal flat, not every such curve was filed as active; inconclusive = small, poorly fitted or top-dose-only effect, or effect the other way, or a change in a side signal; the % refers to the signal ratio;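 also: reporter cells co-stimulated with 50 nM rosiglitazone agonist during compound treatment; % of control where 0% means no effect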); conditions: HEK293 PPARg-UAS-bla, beta-lactamase ratio, antagonist mode; activity, negative = inhibition: at 76.8 µM (top of the series)
Summary of the method: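 Step one: plate 3000 HEK293 UAS-bla cells per well in medium with 1% stripped serum and hold 6-6.5 h at 37 C. Step two: add compound and 50 nM agonist for 16 h. Step three: CCF4 loading, fluorescence read.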

[8] = target: Vitamin D3 receptor (Homo sapiens) (UniProt P11473); experiment: qHTS assay for small molecule antagonists of vitamin D receptor signaling (AID 588541; calls by dose curve;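 also: receptor activated by calcitriol during compound treatment; % is scaled to controls: 0 for no effect and ±100 for the full control effect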); conditions: HEK293T VDR-UAS-bla, beta-lactamase ratio, antagonist mode; activity change, negative = inhibition: at 76.7 µM (top of the series)
[9] = target: Retinoic acid receptor RXR-alpha (Homo sapiens) (UniProt P19793); experiment: qHTS assay for small molecule agonists of retinoid X receptor alpha signaling (AID 588544; calls by dose curve; also: potency is read from the fitted curve at half-maximal effect); conditions: HEK293T RXRa-UAS-bla, beta-lactamase reporter, 18 h; activation: at 76.7 µM (top of the series)
[10] = target: Thyroid hormone receptor beta (Homo sapiens) (UniProt P10828); experiment: qHTS assay for small molecule agonists of thyroid hormone receptor beta signaling (AID 588545; calls by dose curve; also: potency is read from the fitted curve at half-maximal effect); conditions: TR-UAS-bla GripTite HEK 293, beta-lactamase ratio, agonist mode, 18 h; activation: at 76.7 µM, percent of T3 response, DMSO as zero
Summary of the method: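 In this cell-based screen, titrated compounds act on HEK 293 cells held in medium with 2% charcoal/dextran FBS, NEAA and pyruvate for 18 hrs at 37 C. Responses are expressed relative to T3 (10 nM) as 100% and basal DMSO as 0%.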

[11] = target: Retinoic acid receptor RXR-alpha (Homo sapiens) (UniProt P19793); experiment: qHTS assay for small molecule antagonists of retinoid X receptor alpha signaling (AID 588546; active = well fitted inhibition curve with a large enough effect in the signal ratio, with a control signal flat, not every such curve was filed as active; inconclusive = small, poorly fitted or top-dose-only effect, or effect the other way, or a change in a side signal; inactive = no such curve, though single readings can be large or run the other way; the % refers to the signal ratio;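 also: cells stimulated with 9-cis-retinoic acid as agonist; % is scaled to controls: 0 for no effect and ±100 for the full control effect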); conditions: HEK293T RXRa-UAS-bla, beta-lactamase ratio, antagonist mode
Summary of the method: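 Beta-lactamase reporter inhibition, read as CCF4 fluorescence ratio (ex 405, em 460/530 nm) after 2 h at RT. HEK293T UAS-bla cells, 2500/well, were stimulated with 9-cis-RA at 500 or 100 nM final alongside test compound for 18 h at 37 C.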

[12] = target: Thyroid hormone receptor beta (Homo sapiens) (UniProt P10828); experiment: qHTS assay for small molecule antagonists of thyroid hormone receptor beta signaling (AID 588547; active = well fitted inhibition curve with a large enough effect in the signal ratio, with a control signal flat, not every such curve was filed as active; inconclusive = small, poorly fitted or top-dose-only effect, or effect the other way, or a change in a side signal; the % refers to the signal ratio; also: potency is read from the fitted curve at half-maximal effect); conditions: TR-UAS-bla HEK293, beta-lactamase ratio, antagonist mode, 18 h
Summary of the method: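 TR-UAS-bla GripTite HEK293 cells in 2% charcoal/dextran FBS medium; compounds 0.59 nM to 92 uM with T3 at 0.4nM final, 18 h at 37 C. Beta-lactamase read by CCF4 fluorescence (460/530 nm); Hill fits gave IC50 and efficacy.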

[13] = qHTS assay for small molecule activators of the p53 signaling pathway (AID 651743; active = well fitted activation curve with a large enough effect in the signal ratio, not every such curve was filed as active; inconclusive = small, poorly fitted or top-dose-only effect, or a change in a side signal; the % refers to the signal ratio; also: potency is read from the fitted curve at half-maximal effect); conditions: HCT-116 p53RE-bla, beta-lactamase FRET ratio, 16 h; activation: active compounds read high
Summary of the method: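 HCT-116 p53RE-bla, 4,000 cells/well; 5 h settle; cpd/DMSO 16 h, 37 C; LiveBLAzer B/G 2 h RT; fluorescence intensity.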

[14] = qHTS assay for small molecule activators of the nuclear factor-kappa B (NF-kB) signaling pathway (AID 651749; active = well fitted activation curve with a large enough effect in the signal ratio; inconclusive = small, poorly fitted or top-dose-only effect, or a change in a side signal; the % refers to the signal ratio; also: potency is read from the fitted curve at half-maximal effect); conditions: NF-kB-bla ME-180 cells, beta-lactamase FRET ratio, 16 h
Summary of the method: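 Incubation lasted 16 hr at 37C in 5% CO2 after 23 nL compound addition to ME-180 NF-kB-bla cells. Activation appears as beta-lactamase-mediated FRET loss.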

[15] = target: Peroxisome proliferator-activated receptor alpha (Homo sapiens) (UniProt Q07869); experiment: qHTS assay for small molecule agonists of the peroxisome proliferator-activated receptor alpha (PPARalpha) signaling pathway (AID 651778); conditions: PathHunter PPARalpha complementation, chemiluminescence, 6 h; also: potency is read from the fitted curve at half-maximal effect
Summary of the method: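 Enzyme-fragment complementation assay in which ligand-bound PPARalpha translocates and forms an active enzyme that generates chemiluminescence. Cells were plated overnight, exposed to compound for 6 hr at 37 C, and then given detection reagent for 60 min at room temperature.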

[16] = qHTS assay for small molecule agonists of the antioxidant response element (ARE) signaling pathway measured by Nrf2-dependant transcriptional activity (AID 720636; active = well fitted curve in the direction sought with a large enough effect in the repeat runs; inconclusive = weak or mixed curves; inactive = no such curve, though single readings can be large; an effect the other way counts as inactive or inconclusive; also: potency is read from the fitted curve at half-maximal effect)
Summary of the method: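 First, ARE-luc HepG2 cells attached for 6 hr at 37 C in 1% dialyzed FBS medium. Next, compound or DMSO was added and incubated 16 hr. Finally, ONE-Glo reagent was added and luminescence measured after 30 min.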

[17] = qHTS assay for small molecule agonists of the antioxidant response element (ARE) signaling pathway measured by Nrf2-dependant transcriptional activity - cell viability counter screen (AID 720653; active = well fitted curve in the direction sought with a large enough effect in the repeat runs; inconclusive = weak or mixed curves; inactive = no such curve, though single readings can be large; an effect the other way counts as inactive or inconclusive; also: potency is read from the fitted curve at half-maximal effect); conditions: ARE-bla HepG2 viability, CellTiter-Glo ATP luminescence, 16 h
Summary of the method: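 ARE-bla HepG2 cells treated with compounds for 16 h at 37C; this counter screen measures viability as intracellular ATP by CellTiter-Glo luminescence after 30 min at room temperature.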

[18] = qHTS assay for cell viability of HEK293 cells (AID 743288); conditions: ATP luminescence (CellTiter-Glo), 18 h; max response: active compounds read low; also: potency is read from the fitted curve at half-maximal effect; nearly all actives have a fitted effect of over 50% in size
Summary of the method: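 Environmental chemicals tested in qHTS format against parental HEK293 cells; 18 h treatment, 37 C; read-out ATP luminescence (CellTiter-Glo), 30 min RT development.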

[19] = qHTS assay for cell viability of the p53RE-bla HCT-116 cell line (AID 743292); conditions: p53RE-bla HCT-116 viability, ATP luminescence, 16 h; also: potency is read from the fitted curve at half-maximal effect; nearly all actives have a fitted effect of over 55% in size
Summary of the method: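 Quantitative high-throughput format: compounds in DMSO were pinned onto p53RE-bla HCT-116 cells (4,000/well) and incubated 16 h at 37 C. Total intracellular ATP, read by CellTiter-Glo luminescence, reflects viable cell number.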

[20] = Primary qHTS for small molecule stabilizers of the endoplasmic reticulum resident proteome: Secreted ER Calcium Modulated Protein (SERCaMP) assay (AID 1508630); conditions: SH-SY5Y GLuc-SERCaMP (Gaussia luciferase released on ER calcium loss) secretion, thapsigargin, luminescence; activity change, negative = inhibition: at 38.4 µM (top of the series) unless noted; also: % is scaled to controls: 0 for no effect and ±100 for the full control effect
Summary of the method: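 GLuc-SERCaMP-expressing SH-SY5Y cells, pretreated 16 h with compound, are challenged with thapsigargin to empty ER calcium stores; after 4 h, coelenterazine is added directly to the medium and luminescence is imaged.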

[21] = Primary qHTS for inhibitors of nuclear receptor binding SET domain protein 2 (NSD2) in an RCH-ACV wild type WT cells (2C) (AID 1645877); also: % is scaled to controls: 0 for no effect and ±100 for the full control effect; nearly all actives have a fitted effect of over 70% in size
Tags tell the direction and shape of the fitted curve or compound fluorescence and quenching.

UniProt P19793, sequence (P19793 whole entry, looked up): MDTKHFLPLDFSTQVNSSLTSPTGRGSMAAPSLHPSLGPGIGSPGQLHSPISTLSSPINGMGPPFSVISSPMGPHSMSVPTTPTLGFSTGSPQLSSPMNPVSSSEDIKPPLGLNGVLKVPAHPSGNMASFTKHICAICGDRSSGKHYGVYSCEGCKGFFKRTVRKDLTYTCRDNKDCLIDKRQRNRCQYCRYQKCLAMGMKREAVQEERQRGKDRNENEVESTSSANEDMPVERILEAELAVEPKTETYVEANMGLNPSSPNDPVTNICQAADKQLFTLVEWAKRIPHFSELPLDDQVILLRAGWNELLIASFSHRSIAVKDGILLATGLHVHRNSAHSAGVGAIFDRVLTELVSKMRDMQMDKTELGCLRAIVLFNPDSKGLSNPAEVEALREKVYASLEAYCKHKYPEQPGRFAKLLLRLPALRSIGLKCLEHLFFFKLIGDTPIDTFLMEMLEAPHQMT
UniProt Q03181, sequence (Q03181 whole entry, looked up): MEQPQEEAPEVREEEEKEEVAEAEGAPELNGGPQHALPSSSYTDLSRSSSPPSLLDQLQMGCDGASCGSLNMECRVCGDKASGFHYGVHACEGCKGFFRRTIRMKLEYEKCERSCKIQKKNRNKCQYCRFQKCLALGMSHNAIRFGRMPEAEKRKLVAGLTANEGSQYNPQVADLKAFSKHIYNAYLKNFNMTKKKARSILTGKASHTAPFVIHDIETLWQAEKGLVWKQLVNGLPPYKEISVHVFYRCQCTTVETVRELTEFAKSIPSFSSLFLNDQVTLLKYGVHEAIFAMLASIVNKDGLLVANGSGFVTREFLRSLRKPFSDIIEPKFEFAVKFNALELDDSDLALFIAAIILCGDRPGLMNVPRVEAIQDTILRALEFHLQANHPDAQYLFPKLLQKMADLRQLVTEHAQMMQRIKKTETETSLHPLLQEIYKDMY
UniProt P10828, sequence (P10828 whole entry, looked up): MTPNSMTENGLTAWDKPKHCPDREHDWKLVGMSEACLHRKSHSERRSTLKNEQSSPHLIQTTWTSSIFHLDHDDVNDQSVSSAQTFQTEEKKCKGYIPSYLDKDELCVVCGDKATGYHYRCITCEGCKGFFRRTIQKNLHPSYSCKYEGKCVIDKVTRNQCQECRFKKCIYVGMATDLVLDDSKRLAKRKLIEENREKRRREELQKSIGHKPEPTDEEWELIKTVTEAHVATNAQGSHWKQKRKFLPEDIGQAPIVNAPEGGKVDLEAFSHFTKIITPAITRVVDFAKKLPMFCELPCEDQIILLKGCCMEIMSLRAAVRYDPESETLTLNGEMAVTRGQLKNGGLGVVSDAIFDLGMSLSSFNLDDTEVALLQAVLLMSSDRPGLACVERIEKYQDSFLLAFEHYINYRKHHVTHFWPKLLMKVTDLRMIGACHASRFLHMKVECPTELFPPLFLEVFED
UniProt P10275, sequence (P10275 whole entry, looked up): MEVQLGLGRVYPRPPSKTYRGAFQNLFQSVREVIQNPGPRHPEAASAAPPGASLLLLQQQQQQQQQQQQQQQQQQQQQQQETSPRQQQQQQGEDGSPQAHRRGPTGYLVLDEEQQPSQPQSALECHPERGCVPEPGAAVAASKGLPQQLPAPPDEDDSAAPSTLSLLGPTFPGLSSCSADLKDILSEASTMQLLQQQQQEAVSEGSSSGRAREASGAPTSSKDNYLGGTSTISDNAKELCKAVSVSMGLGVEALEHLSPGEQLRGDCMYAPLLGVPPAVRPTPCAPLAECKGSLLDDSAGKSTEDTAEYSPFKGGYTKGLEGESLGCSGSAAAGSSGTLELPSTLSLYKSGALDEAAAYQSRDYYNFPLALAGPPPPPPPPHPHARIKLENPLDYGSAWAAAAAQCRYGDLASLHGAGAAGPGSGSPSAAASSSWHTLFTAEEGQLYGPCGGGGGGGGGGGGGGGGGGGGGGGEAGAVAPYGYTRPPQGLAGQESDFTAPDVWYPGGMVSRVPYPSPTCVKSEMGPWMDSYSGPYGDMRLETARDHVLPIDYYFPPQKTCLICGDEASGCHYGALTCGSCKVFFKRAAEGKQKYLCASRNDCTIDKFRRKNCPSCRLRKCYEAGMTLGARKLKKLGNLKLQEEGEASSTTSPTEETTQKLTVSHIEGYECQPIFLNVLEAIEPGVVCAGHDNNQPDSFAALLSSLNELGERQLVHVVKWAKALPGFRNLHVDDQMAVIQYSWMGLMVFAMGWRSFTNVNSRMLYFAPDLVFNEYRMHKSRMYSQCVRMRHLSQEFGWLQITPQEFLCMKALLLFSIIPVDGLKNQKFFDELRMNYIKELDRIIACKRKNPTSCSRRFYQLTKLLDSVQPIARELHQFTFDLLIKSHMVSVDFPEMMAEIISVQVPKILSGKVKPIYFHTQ
UniProt P03372, sequence (P03372 whole entry, looked up): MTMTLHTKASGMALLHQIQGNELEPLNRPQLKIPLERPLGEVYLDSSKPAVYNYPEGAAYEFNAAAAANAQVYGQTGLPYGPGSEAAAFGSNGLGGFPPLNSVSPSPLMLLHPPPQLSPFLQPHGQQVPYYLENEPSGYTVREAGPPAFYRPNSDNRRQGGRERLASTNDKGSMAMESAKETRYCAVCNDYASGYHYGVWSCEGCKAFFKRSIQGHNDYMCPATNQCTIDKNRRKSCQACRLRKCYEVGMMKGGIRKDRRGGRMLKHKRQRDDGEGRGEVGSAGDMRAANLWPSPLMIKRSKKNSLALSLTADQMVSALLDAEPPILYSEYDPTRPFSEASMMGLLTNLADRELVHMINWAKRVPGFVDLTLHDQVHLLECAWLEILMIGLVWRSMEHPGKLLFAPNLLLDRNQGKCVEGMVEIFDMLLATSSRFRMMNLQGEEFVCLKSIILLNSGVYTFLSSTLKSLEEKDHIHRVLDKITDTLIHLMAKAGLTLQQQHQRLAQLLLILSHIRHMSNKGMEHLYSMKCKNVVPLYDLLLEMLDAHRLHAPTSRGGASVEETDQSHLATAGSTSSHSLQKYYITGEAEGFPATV
UniProt Q07869, sequence (Q07869 whole entry, looked up, the tested form may be a part): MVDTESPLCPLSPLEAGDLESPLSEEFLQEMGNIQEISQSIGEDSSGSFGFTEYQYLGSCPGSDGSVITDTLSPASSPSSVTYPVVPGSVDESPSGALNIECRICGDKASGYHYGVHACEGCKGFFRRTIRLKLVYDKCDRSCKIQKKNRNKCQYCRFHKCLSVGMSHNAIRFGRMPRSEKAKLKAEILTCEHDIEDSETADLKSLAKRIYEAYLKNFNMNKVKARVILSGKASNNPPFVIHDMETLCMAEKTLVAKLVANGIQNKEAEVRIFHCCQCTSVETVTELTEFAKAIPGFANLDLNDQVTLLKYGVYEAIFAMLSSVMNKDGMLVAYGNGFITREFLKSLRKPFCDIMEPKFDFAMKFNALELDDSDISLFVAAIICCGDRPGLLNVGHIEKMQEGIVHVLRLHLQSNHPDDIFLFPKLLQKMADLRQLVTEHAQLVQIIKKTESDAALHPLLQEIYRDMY

Clc1ccc(-c2nc3sccn3c2/C=N/OCc2ccc(Cl)c(Cl)c2)cc1
inconclusive: activity change, negative = inhibition [2] -44.7% | activity change, negative = inhibition [3] -29.2% | Potency [4] 39.8 µM [fluorescent, side channel, partial curve, poor fit] | activity change, negative = inhibition [5] 31.2% | activity, negative = inhibition [7] -31.3% | activity change, negative = inhibition [8] -39.8% | Potency [9] 14.1 µM [side channel, rising, partial curve] | Potency [10] 31.6 µM [side channel, rising, partial curve, poor fit] | max response [11] -68.9% | Potency [12] 0.0014 µM [cytotoxic, side channel, full curve, poor fit] | Potency [13] 56.2 µM [side channel, falling, single point] | Potency [14] 39.8 µM [side channel, falling, partial curve, poor fit] | Potency [15] 35.5 µM [activator, partial curve] | Potency [16] 48.6 µM [activator, partial curve, poor fit] | Potency [17] 56.2 µM [cytotoxic, partial curve, poor fit] | Potency [19] 39.8 µM [cytotoxic, partial curve]
active: Potency [1] 20 µM [inhibitor] | Potency [18] 50.1 µM
inactive: Potency [6] | Potency [20] | Potency [21]
